The campaign covered roughly 310,000 compounds. About 14,000 (4.5%) showed an effect of 50% or more. The effect is printed as a negative number. Some of the results follow.
The molecules below were run against human ether-à-go-go-related gene (hERG) potassium channel (human, UniProt Q12809) (assay: primary screen, population patch clamp on CHO cells stably expressing hERG).
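Note: peak tail current of the secondary pulse compared with the same well before compound.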

Sequence of human ether-à-go-go-related gene (hERG) potassium channel (Q12809 whole entry, looked up): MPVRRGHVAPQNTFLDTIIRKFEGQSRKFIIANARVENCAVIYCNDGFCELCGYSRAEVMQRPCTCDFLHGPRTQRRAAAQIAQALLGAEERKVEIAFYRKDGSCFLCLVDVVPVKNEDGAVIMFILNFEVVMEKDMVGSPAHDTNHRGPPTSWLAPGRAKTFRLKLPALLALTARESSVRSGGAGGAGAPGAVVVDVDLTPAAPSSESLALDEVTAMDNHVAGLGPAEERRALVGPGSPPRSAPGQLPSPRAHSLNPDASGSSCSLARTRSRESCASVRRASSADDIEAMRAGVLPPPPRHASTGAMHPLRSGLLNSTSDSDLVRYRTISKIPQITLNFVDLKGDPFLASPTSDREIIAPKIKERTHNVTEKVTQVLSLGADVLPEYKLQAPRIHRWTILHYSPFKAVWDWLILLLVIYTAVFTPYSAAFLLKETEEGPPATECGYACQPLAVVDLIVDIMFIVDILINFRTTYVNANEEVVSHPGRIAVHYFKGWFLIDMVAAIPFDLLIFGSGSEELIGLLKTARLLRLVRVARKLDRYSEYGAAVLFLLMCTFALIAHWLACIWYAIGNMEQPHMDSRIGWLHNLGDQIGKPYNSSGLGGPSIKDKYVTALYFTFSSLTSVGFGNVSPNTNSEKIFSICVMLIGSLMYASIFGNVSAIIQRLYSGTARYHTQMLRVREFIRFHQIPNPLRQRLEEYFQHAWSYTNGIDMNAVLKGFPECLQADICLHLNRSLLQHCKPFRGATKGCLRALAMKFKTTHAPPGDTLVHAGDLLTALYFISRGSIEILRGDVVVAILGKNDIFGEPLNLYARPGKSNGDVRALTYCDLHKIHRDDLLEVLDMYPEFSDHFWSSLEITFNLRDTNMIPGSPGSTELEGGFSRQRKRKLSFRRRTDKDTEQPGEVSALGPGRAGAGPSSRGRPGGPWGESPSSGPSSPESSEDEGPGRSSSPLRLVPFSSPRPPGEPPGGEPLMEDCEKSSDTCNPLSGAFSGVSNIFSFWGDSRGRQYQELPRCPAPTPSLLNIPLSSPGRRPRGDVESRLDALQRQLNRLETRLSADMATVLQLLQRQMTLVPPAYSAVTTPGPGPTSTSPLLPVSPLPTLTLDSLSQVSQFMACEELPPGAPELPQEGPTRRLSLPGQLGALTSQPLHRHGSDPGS

Structure (SMILES)	hERG current change (%, negative = inhibition) at 10uM
CCOC(=O)c1c(NC(=O)Cn2nc(C(=O)O)c3ccccc3c2=O)sc2c1CCC(C)C2 (stereo not shown)	9.53%
Cc1no[n+]([O-])c1COc1ccc(/C=C2\NC(=S)NC2=O)cc1	-3.66%
COc1ccccc1NC(=O)Cn1cnc2c(cnn2-c2ccccc2)c1=O	6.91%
Cc1cc(NC(=O)c2c([N+](=O)[O-])cnn2C)no1	14.2%
O=C(CN1C(=O)c2ccccc2S1(=O)=O)Nc1ccc(S(=O)(=O)N2CCCC2)cc1	-16.5%
Cn1c2c(c(=O)n(C)c1=O)C(NS(=O)(=O)c1ccccc1)(C(F)(F)F)C(=O)N2 (stereo not shown)	16.5%
CCOC(=O)c1cn[nH]c1N	11%
CC1CCCC/C1=N\NS(=O)(=O)c1ccc(Br)cc1 (stereo not shown)	0.0516%
CC(=O)c1cc2c(cc1NS(=O)(=O)c1cccc(C(=O)O)c1)OCO2	12%
CCc1cccc2c(C(=O)Cn3nnc(-c4ccc(OC)c(OC)c4)n3)c[nH]c12	3.71%
CCC(C)c1ccccc1N1CC(C(=O)NCCc2ccc(OC)c(OC)c2)CC1=O (stereo not shown)	6.41%
CC1=C(C(=O)NC2CCC(C)CC2)C2(CCC(C)CC2)OC1=O (stereo not shown)	7.63%
COc1ccc(CCNC(=O)C2CC(=O)N(c3ccc(C)cc3)C2)cc1OC (stereo not shown)	-8.21%
Cc1ccc(C)c(N2CCN(C(=O)c3ccc(Cn4c(=O)[nH]c5ccccc5c4=O)cc3)CC2)c1	14.3%
CN(C)S(=O)(=O)c1cccc(NC(=O)COc2ccc(C(=O)c3ccccc3)cc2)c1	-24.6%
COc1ncccc1C(=O)NCC(CC(=O)O)c1ccccc1 (stereo not shown)	-9.34%
CC(=O)c1cccc(NC(=O)c2cnn3ccccc23)c1	5.22%
Cc1cc(C)c2c(-n3cccc3)n[nH]c2n1	6.04%
C#CC[N+]1(C)C2CCC1CC(O)C2.[Br-] (stereo not shown)	8.56%
COc1ccc(CCC(=O)Nc2cc([N+](=O)[O-])ccc2OC)cc1	6.96%
Cc1cc(C)cc(Oc2ccc(NC(=O)C3CC=CCC3C(=O)O)cc2)c1 (stereo not shown)	42.8%
CN1CCN(CC(=O)Nc2cc(S(=O)(=O)N3CCOCC3)ccc2Cl)CC1	4.13%
COc1ccc(C(=O)C2CCCN(C(=O)c3n[nH]c4c3CCCC4)C2)cc1OC (stereo not shown)	7.34%
Cc1cc(C)c(N(C(=O)c2csnn2)C(C(=O)NC2CCCC2)c2ccncc2)c(C)c1 (stereo not shown)	-3.14%
CC1CC(C)CN(C(=O)Cc2c(C(=O)O)[nH]c3ccc(Cl)cc23)C1 (stereo not shown)	-11.1%
CCCN(Cc1nnc(-c2ccccc2Cl)o1)C(=O)c1cccc(S(=O)(=O)N2CCOCC2)c1	-6.05%
Cc1sc(-n2cccc2)c(C(=O)O)c1C	8.6%
CC1(c2ccccc2Cl)NC(=O)N(CC(=O)NC(=O)NCc2ccco2)C1=O (stereo not shown)	-8.53%

Structure (SMILES)	hERG current change (%, negative = inhibition) at 10uM
CCCCNC(=O)C1CCC(CNS(=O)(=O)c2c(C)cc(C)cc2C)CC1 (stereo not shown)	3.09%
Cc1ccc(SCCC(=O)NCc2ccncc2)cc1	-61.9%
CC(=O)Oc1ccc2ccccc2c1C(NC(=O)Cc1ccccc1)c1ccccc1Cl (stereo not shown)	7.9%
CC[N+](C)(CC)CC(=O)OCC1C(C)C=C(C)CC1C.[I-] (stereo not shown)	13.3%
Cc1ccccc1N(CC(=O)NC1CCCCC1)C(=O)CCCC(=O)Nc1ccccn1	-4.16%
O=C(CSc1nncn1-c1ccccn1)Nc1ccccc1Cl	4.16%
C#CCOCCOCCOCCNc1nc(N2CCN(C(=O)[C@H]([C@@H](C)CC)n3cc(CCC[NH+]=C(N)N)nn3)CC2)nc(N2CCN(C(=O)[C@H](Cc3ccc(O)cc3)n3cc(CCO)nn3)CC2)n1.[Cl-]	29.5%
O=C(O)CCN1C(=O)c2ccc(NC(=O)CSc3ccccc3)cc2C1=O	4.22%
CCc1ccc(N2CC(C(=O)Nc3cccc(C(=O)NC4CC4)c3)CC2=O)cc1 (stereo not shown)	10.6%
COc1cc(OC)cc(C(=O)NCCCCc2ccccc2)c1	-56%
CCCCC(=O)OCCNC(=O)c1cc2ccccc2oc1=O	8.23%
CN1CCN(c2nccc3c2ncn3C)CC1.Cl	5.13%
CCNC(=O)COc1ncnc2scc(-c3ccc(F)cc3)c12	-12%
O=C(O)CCC(=O)Nc1cccc2cccnc12	32.3%
CC(C)(C)c1ccc(C(=O)NNC(=O)c2ccncc2)cc1	15.5%
CC(=O)Oc1ccc(N(C(C)=O)S(=O)(=O)c2ccc(Cl)cc2)c2ccccc12	1.86%
O=C(Nc1nnc(S(=O)(=O)N2CCOCC2)s1)c1cccc(F)c1	16.6%
Cc1cccc(NC(=S)N(CCCN2CCOCC2)Cc2ccccn2)c1	-22.3%
COC(=O)C1=C(O)CSC1=Nc1cccc(C(F)(F)F)c1	-26.2%
O=C(CN1C(=O)CCSc2ccccc21)Nc1ccc2c(c1)OCCO2	0.514%
Cc1cc(C)nc(NC(=O)C(c2ccccc2)c2ccccc2)n1	4.18%
O=C(O)C1Cc2ccccc2-c2ccccc2C1	20.1%
O=C(CCCOc1ccc(Cl)cc1Cl)N/N=C/c1ccccc1	6.94%
COc1ccc(NC(=O)CCS(=O)(=O)c2ccc3c(c2)CCCN3C(C)=O)cc1	9.92%
O=C(CC1C(=O)NCCN1Cc1ccc(-c2ccccc2)cc1)NCCCn1cccn1 (stereo not shown)	-8.84%
CCOC(=O)C1CCCN(C(=O)c2cc(Nc3ccc(OC)cc3OC)nc3ccccc23)C1 (stereo not shown)	-17.2%
CCCCNc1ccc2nsnc2c1[N+](=O)[O-]	-18.8%

Source: article PMC4336329 (PLoS ONE, 2015)
